87 compounds from PubChem BioAssay AID463173 (ICCB-Longwood Screening Facility, Harvard Medical School, 2010) can be followed below.

In all, about 52,000 compounds went through this assay and about 4,300 (8.3%) were called active. Cut-off read from the data, not from the text of the source: active = survival mostly below about 52% (no sharp cut-off); inactive = mostly above about 56%. This is one part of the list.

The test system of the assay is DeltatarO mutant. Description: growth inhibition of S. aureus wild type versus tarO mutant, primary screen, teichoic acid synthesis inhibitors, RN4220, OD600 (AID 463173). Particulars: OD600, 18 h, active compounds read low, screened at 18.75 µg/mL (by protocol).
Consider `Cc1cc(S(=O)(=O)Nc2cc3c(cc2Cl)n(C)c(=O)c(=O)n3C)ccc1F`, for which the survival is inactive: 68%.
The figure for `Cn1c(=O)c2cc(C(=O)N3CCN(c4cccc(C(F)(F)F)c4)CC3)sc2c2ccccc21` is inactive: 92%; for `O=C(CN1C(=O)COc2ccc(S(=O)(=O)N3CCOCC3)cc21)Nc1ccc(F)c(Cl)c1` it is inactive: 106%; for `Cc1c(Cl)cccc1NC(=O)C1CCCN(C(=O)c2cnn(-c3ccccc3)c2-n2cccc2)C1` (configuration not stated) it is inactive: 91%.
The figure for `COc1cc(OC)c(N(C)C(=O)c2cn(C)c(=O)c3cc(OC)c(OC)cc23)cc1Cl` is inactive: 68%.
As for `O=C(Nc1nc2c(F)cc(F)cc2s1)c1ccc2c(c1)OCCO2`, the figure is inactive: 85%; as for `CCc1ccccc1NC(=O)CSc1nc(C)c(C(=O)Nc2ccccc2)c(-c2ccc(Cl)cc2)c1C#N`, inactive: 72%; as for `Cc1ccc(NC(=O)C2CCN(S(=O)(=O)c3cccc4nonc34)CC2)c(Cl)c1`, inactive: 87%.
For `O=C(Nc1ccc(-c2nc3ccccc3s2)c(O)c1)c1ccc(Br)cc1`, the survival was inactive: 87%.
The figure for `CCOC(=O)c1c(C)[nH]c(C)c1S(=O)(=O)N1CCC(C(=O)NCc2cccc(C)c2)CC1` is inactive: 87%; for `CC1CCc2c(sc3nc(C(C)C)n4c(SCC(=O)NCc5ccco5)nnc4c23)C1` (configuration not stated) it is inactive: 103%.
As for `Cc1nn(S(=O)(=O)c2ccc(F)cc2)c(C)c1S(=O)(=O)N1CCCCC1`, the survival was inactive: 72%.
As for `CC(C)NC(=O)C1CCCN(S(=O)(=O)c2ccc(-n3cnnn3)cc2)C1` (configuration not stated), the figure is inactive: 76%; as for `Cc1c(C(=O)Nc2cccc(C(F)(F)F)c2)oc2ccc(S(=O)(=O)N3CCC4(CC3)OCCO4)cc12`, inactive: 67%.
The figure for `CC(C)(C)C(=O)Nc1nnc2n1CCS2` is inactive: 85%; for `COc1ccc(NC(=O)CSc2c3c(nc4ccccc24)CCC3)cc1Cl` it is inactive: 134%; for `CCOc1ccccc1N(C)C(=O)c1cc(S(=O)(=O)NCCc2ccc(Cl)cc2)ccc1F` it is inactive: 85%.
The figure for `Cc1ccccc1CNC(=O)CCc1cn(Cc2ccccc2C)c2ccccc12` is inactive: 58%; for `CCN(CC)S(=O)(=O)c1ccc(NC(=O)c2ccc3c(=O)n4c(nc3c2)CCCCC4)cc1` it is inactive: 72%; for `CCOc1ccc(NC(=O)c2ccc3c(c2)nnn3C2CCCC2)cc1` it is inactive: 122%.
As for `COc1ccc(N2CCN(C(=O)c3cnc(SC)nc3C)CC2)cc1`, the survival was inactive: 75%.
As for `COc1ccc(-c2cc3c(=O)n(CC(=O)Nc4ccc(Br)c(C)c4)ccn3n2)cc1OC`, the figure is inactive: 83%; as for `O=C(CSCc1ccc(F)cc1)N1CCc2c([nH]c3ccccc23)C1c1ccc(F)cc1` (configuration not stated), inactive: 75%; as for `CCCc1c(C)c2ccccc2[nH]c1=O`, inactive: 79%.
As to `Cc1cc(S(=O)(=O)Nc2cc3c(cc2NCc2ccccc2)n(C)c(=O)n3C)ccc1F`, the survival is inactive: 61%.
With `C=CCc1ccccc1OCC(CN1CCCCC1)OC(C)=O` (configuration not stated), the survival is inactive: 105%.
On to `CCOC(=O)C1=C(CS(=O)(=O)c2ccc(C(C)(C)C)cc2)NC(=O)NC1c1cccc(OC)c1` (configuration not stated), for which the survival is inactive: 46%.
As for `Cc1cc(C)c(S(=O)(=O)NCCc2cc3cc(C)c(C)cc3[nH]c2=O)c(C)c1`, the figure is inactive: 63%.
The figure for `O=S(=O)(NCCc1nnc2ccc(SCc3ccc(C(F)(F)F)cc3)nn12)c1ccccc1` is inactive: 67%; for `Cc1oc2ccc(O)c(CN3CCN(Cc4ccccc4)CC3)c2c1C(=O)Nc1ccccc1` it is inactive: 68%; for `CN(C)c1ccc(CNC(=O)CN2C(=O)c3cccnc3Oc3ccc(Cl)cc32)cc1` it is inactive: 89%.
On to `Cc1nn(CC(=O)NCc2cccc(Br)c2)c(=O)c2c1sc1ccccc12`, for which the survival was inactive: 100%.
`CCOC(=O)c1cccc(NC(=O)Cn2c(CC(=O)N3CCCC3)nc3ccccc32)c1`: the survival is inactive: 83%.
The figure for `O=S1(=O)CCC(NC(=S)SCCOc2ccccc2OCCO)C1` (configuration not stated) is inactive: 90%.
As for `COc1cc(C(CC(=O)Nc2ccc(Br)cn2)N2Cc3ccccc3C2=O)cc(OC)c1OC` (configuration not stated), the figure is inactive: 78%.
As for `C=CCc1c(C)nc(SC)nc1Nc1ccc(C(=O)O)cc1`, the figure is inactive: 113%; as for `CCCC1(C(=O)OC)NC(c2cc(OC)c(OC)c(OC)c2)C2C(=O)N(c3ccc(C)cc3)C(=O)C21` (configuration not stated), inactive: 85%; as for `Cc1c(C(=O)Nc2cccc(F)c2)oc2c1-c1nn(Cc3c(F)cccc3Cl)cc1CC2`, inactive: 101%.
In the case of `COc1ccc(NC(=O)CSc2nnc(-c3ccc(OC)cc3)s2)cc1`, the survival is inactive: 84%.
The figure for `COc1cccc(C(c2sc3nc(-c4ccco4)nn3c2O)N2CCOCC2)c1` (configuration not stated) is inactive: 74%; for `Cc1ccc(Nc2nc3ccc(C)cc3nc2-n2nc(C)cc2C)c(C)c1` it is inactive: 81%; for `CC(C)C(=O)Nc1nnc(S(=O)(=O)N2CCCCCC2)s1` it is inactive: 85%.
As for `COc1ccc(N(CC(=O)NCc2ccccc2Cl)S(=O)(=O)c2c(C)[nH]c(=O)[nH]c2=O)cc1`, the figure is inactive: 90%; as for `O=C(C1COc2ccccc2O1)N1CCN(c2nc3c(F)cccc3s2)CC1` (configuration not stated), inactive: 77%.
For `COCCNC(=O)C1CCC(CNS(=O)(=O)c2ccc3c(c2)CC(C)N3C(C)=O)CC1` (configuration not stated), the survival was inactive: 73%.
The figure for `COc1ccc(N2CC3=C(C2=O)C(c2ccc(O)c(OC)c2)NC(=O)N3C)cc1` (configuration not stated) is inactive: 87%; for `CCOc1ccccc1NC(=O)Cn1cnc2c1c(=O)n(C)c(=O)n2C` it is inactive: 71%.
The figure for `CCOC(=O)c1ccccc1NC(=O)c1cc2c(s1)-c1c(C)cccc1OC2` is inactive: 137%.
For the compound `Cc1c(Cl)cccc1NC(=O)NCc1c(-n2cccc2)sc2c1CCCC2`, the survival was inactive: 91%.
As for `Cc1ccc(N(Cc2cccs2)C(=O)Nc2cccc(Cl)c2)cc1`, the figure is inactive: 80%.
The figure for `Cc1ccc(Cn2c(=O)n(CC3CCC(C(=O)N4CCC(C)CC4)CC3)c(=O)c3sccc32)cc1` (configuration not stated) is inactive: 69%; for `Cc1ccc(CNC(=O)c2c(O)nc3ccccn3c2=O)cc1` it is inactive: 89%.
As for `Cc1oc2c(c1C(=O)Nc1ccccc1Br)C1=NCCN1C=N2`, the figure is inactive: 75%; as for `O=C(NCCc1cccs1)c1ccc(Cn2c(SCc3ccccc3)nc3cccnc32)cc1`, inactive: 99%; as for `COc1cccc(CNC(=O)c2sc3nc4n(c(=O)c3c2C)CCC4)c1`, inactive: 103%.
As for `COCCCNC(=O)c1cc(-c2ccc(OC)cc2)nc2n[nH]c(-c3ccc(Cl)cc3)c12`, the survival is inactive: 73%.
As for `COc1ccc(CCNC(=O)c2cnc3ccc(C)cn3c2=O)cc1OC`, the figure is inactive: 90%.
In the case of `Cn1ncc2c(NCc3ccc(Cl)cc3)ncnc21`, the survival was inactive: 83%.
As for `Cc1c(C(=O)Nc2ccc(F)cc2F)oc2ccc3c(c12)C(=O)CC(C)(C)O3`, the figure is inactive: 80%; as for `CC(C)OCCCNc1sc(S(=O)(=O)c2ccccc2)nc1S(=O)(=O)c1ccc(Cl)cc1`, inactive: 69%.
`CCOc1ccccc1NC(=O)CSc1nc2c(oc3ccccc32)c(=O)n1C(C)C`: the survival is inactive: 91%.
`Cc1nn(CCC(=O)Nc2cccc(C#N)c2)c(C)c1S(=O)(=O)N1CCC(C)CC1`: the survival was inactive: 89%.
The figure for `COC(=O)c1ccccc1NC(=O)Cc1nc(-c2ccc(OC)cc2)no1` is inactive: 102%.
`COc1ccc(-n2cnc3cc(C(=O)NCCC4=CCCCC4)ccc32)cc1`: the survival was inactive: 75%.
`O=C(Nc1cccc(C(=O)OCc2cc(=O)n3ccsc3n2)c1)c1ccc(F)cc1`: the survival is inactive: 119%.
Turning to `COc1ccc(OC)c(NC(=O)CN(c2ccccc2OC)S(=O)(=O)c2ccc(C)cc2)c1`, the survival is inactive: 54%.
The figure for `Cc1csc2nc(COC(=O)c3ccc(NC(=O)c4ccccc4Br)cc3)cc(=O)n12` is inactive: 122%; for `CCOCCCNC(=O)CCC(=O)NNc1nc2ccccc2c2nc(C)nn12` it is inactive: 89%.
As to `Cc1nc2nc(SCC(=O)NCCc3ccc(Cl)cc3)nn2c(C)c1Cc1c(F)cccc1Cl`, the survival was active: 0%.
As to `CCN(c1ccc(C)cc1C)S(=O)(=O)c1nnc(NC(=O)c2ccc(F)cc2)s1`, the survival is active: 14%.
On to `COc1ccc(CCN(Cc2cc3cc(C)ccc3n3nnnc23)C(=O)N(C)C)cc1OC`, for which the survival is inactive: 86%.
The figure for `Cc1ccc2oc(=O)c(-c3nc(-c4cccs4)no3)cc2c1` is inactive: 86%; for `COc1cccc(-c2cc(C(=O)Nc3ccc(OC)cc3OC)no2)c1` it is inactive: 56%.
As for `Nc1ncc(S(=O)(=O)N2CCN(c3ccccc3)CC2)cn1`, the figure is inactive: 109%.
The figure for `COc1cc(NC(=O)CSc2ccc(-c3sc(C)nc3C)nn2)cc(OC)c1` is active: 6%; for `Cc1ccc(S(=O)(=O)C(CNC(=O)C(=O)NCCc2ccc(F)cc2)c2cccs2)cc1` (configuration not stated) it is inactive: 67%.
In the case of `O=C(CSc1nc2c([nH]c3ccccc32)c(=O)n1-c1ccc(F)cc1)Nc1ccc2c(c1)OCO2`, the survival was inactive: 58%.
On to `COc1ccc(Cl)cc1NC(=O)c1oc2ccc(S(=O)(=O)N3CCCCC3)cc2c1C`, for which the survival was inactive: 67%.
The figure for `COc1ccc(N2CCN(C(=O)c3ccc(CS(=O)c4cccc(C)c4)o3)CC2)cc1` (configuration not stated) is inactive: 80%; for `CCCOc1ccc(C(=O)Nc2cccc(NC(=O)c3ccc(Cl)cc3Cl)c2)cc1` it is inactive: 84%; for `Cc1nn(CC(=O)NCc2ccco2)c(=O)c2nn(-c3ccccc3)c(C)c12` it is inactive: 92%.
Turning to `CC(=O)N1CCc2cc(CNS(=O)(=O)c3ccccc3C(F)(F)F)ccc21`, the survival was inactive: 80%.
As for `O=C(CSc1nc2ccccc2n1Cc1cccc(C(F)(F)F)c1)NCc1ccccc1`, the survival is inactive: 75%.
As for `CC(=O)Nc1ccc(NC(=O)c2c(-c3ccccc3)noc2C)cc1`, the figure is inactive: 75%; as for `O=C(O)c1ccc(CSc2nc3cccnc3n2Cc2cccc(F)c2)cc1`, inactive: 93%; as for `Cc1cccc(OCC(=O)Nc2ccc(S(=O)(=O)N(Cc3ccccc3)c3ccccc3)cc2)c1`, inactive: 82%.
As for `Cc1cc(-n2c(C)nc3ccccc3c2=O)ccc1NC(=O)c1cccc([N+](=O)[O-])c1C`, the figure is active: 0%.
